From PubChem BioAssay (NCI)
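Five concentrations, 48 hours, 96-well plates. At the TGI there is no net growth.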

Assays:
Experiment in all cases: NCI tumour cell line growth inhibition, 48 h
UACC-62 melanoma = tested on: UACC-62 melanoma
MCF7 breast = tested on: MCF7 breast
LXFL 529 NSCLC = tested on: LXFL 529 NSCLC
OVCAR-5 ovarian = tested on: OVCAR-5 ovarian
COLO 205 colon = tested on: COLO 205 colon
SK-OV-3 ovarian = tested on: SK-OV-3 ovarian
UACC-257 melanoma = tested on: UACC-257 melanoma
XF 498 CNS = tested on: XF 498 CNS
SF-268 CNS = tested on: SF-268 CNS
EKVX NSCLC = tested on: EKVX NSCLC
PC-3 prostate = tested on: PC-3 prostate
T-47D breast = tested on: T-47D breast
MALME-3M melanoma = tested on: MALME-3M melanoma
SN12C renal = tested on: SN12C renal
CCRF-CEM leukemia = tested on: CCRF-CEM leukemia
SR leukemia = tested on: SR leukemia
MDA-MB-231 breast = tested on: MDA-MB-231 breast
OVCAR-4 ovarian = tested on: OVCAR-4 ovarian
SW-620 colon = tested on: SW-620 colon
OVCAR-3 ovarian = tested on: OVCAR-3 ovarian
DU-145 prostate = tested on: DU-145 prostate
SNB-19 CNS = tested on: SNB-19 CNS
NCI/ADR-RES ovarian = tested on: NCI/ADR-RES ovarian
DMS 273 small cell lung = tested on: DMS 273 small cell lung
A498 renal = tested on: A498 renal
NCI-H460 lung = tested on: NCI-H460 lung
RPMI-8226 leukemia = tested on: RPMI-8226 leukemia
HOP-18 NSCLC = tested on: HOP-18 NSCLC
HOP-92 NSCLC = tested on: HOP-92 NSCLC
A549 NSCLC = tested on: A549 NSCLC
OVCAR-8 ovarian = tested on: OVCAR-8 ovarian
K-562 leukemia = tested on: K-562 leukemia
KM20L2 colon = tested on: KM20L2 colon
HL-60(TB) leukemia = tested on: HL-60(TB) leukemia
SF-295 CNS = tested on: SF-295 CNS
KM12 colon = tested on: KM12 colon
HCT-15 colon = tested on: HCT-15 colon
786-0 renal = tested on: 786-0 renal
HT29 colon = tested on: HT29 colon
IGROV1 ovarian = tested on: IGROV1 ovarian
MDA-N = tested on: MDA-N
HCC-2998 colon = tested on: HCC-2998 colon
TK-10 renal = tested on: TK-10 renal
M19-MEL melanoma = tested on: M19-MEL melanoma
MOLT-4 leukemia = tested on: MOLT-4 leukemia
SK-MEL-2 melanoma = tested on: SK-MEL-2 melanoma
DLD-1 colon = tested on: DLD-1 colon
HOP-62 NSCLC = tested on: HOP-62 NSCLC
DMS 114 small cell lung = tested on: DMS 114 small cell lung
SK-MEL-5 melanoma = tested on: SK-MEL-5 melanoma
HCT-116 colon = tested on: HCT-116 colon
U251 CNS = tested on: U251 CNS
MDA-MB-435 = tested on: MDA-MB-435
NCI-H23 lung = tested on: NCI-H23 lung
UO-31 renal = tested on: UO-31 renal
M14 melanoma = tested on: M14 melanoma
SF-539 CNS = tested on: SF-539 CNS
RXF 393 renal = tested on: RXF 393 renal
LOX IMVI melanoma = tested on: LOX IMVI melanoma
SK-MEL-28 melanoma = tested on: SK-MEL-28 melanoma
NCI-H226 lung = tested on: NCI-H226 lung
BT-549 breast = tested on: BT-549 breast
CAKI-1 renal = tested on: CAKI-1 renal
SNB-75 CNS = tested on: SNB-75 CNS
ACHN renal = tested on: ACHN renal

## COc1c(O)cc2c(c1OC)-c1ccc(SC)c(=O)cc1C(NC(C)=O)CC2 (stereo not given)
UACC-62 melanoma
  TGI: > 100 µM
MCF7 breast
  TGI: > 100 µM
LXFL 529 NSCLC
  TGI: > 100 µM
OVCAR-5 ovarian
  TGI: > 100 µM
COLO 205 colon
  TGI: 0.106 µM
SK-OV-3 ovarian
  TGI: 12.2 µM
UACC-257 melanoma
  TGI: > 100 µM
XF 498 CNS
  TGI: > 100 µM
SF-268 CNS
  TGI: > 100 µM
EKVX NSCLC
  TGI: > 100 µM
PC-3 prostate
  TGI: > 100 µM
T-47D breast
  TGI: > 100 µM
MALME-3M melanoma
  TGI: > 100 µM
SN12C renal
  TGI: > 100 µM
CCRF-CEM leukemia
  TGI: 31.6 µM
SR leukemia
  TGI: 0.844 µM
MDA-MB-231 breast
  TGI: > 100 µM
OVCAR-4 ovarian
  TGI: > 100 µM
SW-620 colon
  TGI: > 100 µM
OVCAR-3 ovarian
  TGI: 0.0724 µM
DU-145 prostate
  TGI: 0.112 µM
SNB-19 CNS
  TGI: > 100 µM
NCI/ADR-RES ovarian
  TGI: 7.13 µM
DMS 273 small cell lung
  TGI: > 100 µM
A498 renal
  TGI: 8.55 µM
NCI-H460 lung
  TGI: 1.33 µM
RPMI-8226 leukemia
  TGI: 77.7 µM
HOP-18 NSCLC
  TGI: > 100 µM
HOP-92 NSCLC
  TGI: 11.4 µM
A549 NSCLC
  TGI: > 100 µM
OVCAR-8 ovarian
  TGI: 28.7 µM
K-562 leukemia
  TGI: 35.9 µM
KM20L2 colon
  TGI: 0.0147 µM
HL-60(TB) leukemia
  TGI: 0.0175 µM
SF-295 CNS
  TGI: 0.758 µM
KM12 colon
  TGI: 0.145 µM
HCT-15 colon
  TGI: 26.5 µM
786-0 renal
  TGI: > 100 µM
HT29 colon
  TGI: 1.61 µM
IGROV1 ovarian
  TGI: > 100 µM
MDA-N
  TGI: 0.272 µM
HCC-2998 colon
  TGI: 4.11 µM
TK-10 renal
  TGI: 96.4 µM
M19-MEL melanoma
  TGI: > 100 µM
MOLT-4 leukemia
  TGI: > 100 µM
SK-MEL-2 melanoma
  TGI: 4.12 µM
DLD-1 colon
  TGI: > 100 µM
HOP-62 NSCLC
  TGI: > 100 µM
DMS 114 small cell lung
  TGI: 0.014 µM
SK-MEL-5 melanoma
  TGI: 0.386 µM
HCT-116 colon
  TGI: 0.935 µM
U251 CNS
  TGI: 13.4 µM
MDA-MB-435
  TGI: 0.0235 µM
NCI-H23 lung
  TGI: 1.77 µM
UO-31 renal
  TGI: > 100 µM
M14 melanoma
  TGI: 55 µM
SF-539 CNS
  TGI: 0.0275 µM
RXF 393 renal
  TGI: 2.87 µM
LOX IMVI melanoma
  TGI: > 100 µM
SK-MEL-28 melanoma
  TGI: > 100 µM
NCI-H226 lung
  TGI: 1.2 µM
BT-549 breast
  TGI: 4.64 µM
CAKI-1 renal
  TGI: 47.7 µM
SNB-75 CNS
  TGI: 18.6 µM
ACHN renal
  TGI: > 100 µM
